Source: PubChem BioAssay (NCI)
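96-well plates; 48 h exposure; 5 concentrations. Endpoints by linear interpolation between flanking doses. Not reached: highest tested concentration assigned. GI50 marks 50% less growth. TGI marks complete inhibition of growth.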

Tested on: NCI-H322M lung
Experiment: growth of human tumour cells (NCI), 48 h

Oc1ccc(/C=C2\CCCc3cc4ccc(O)cc4[o+]c32)c(O)c1
GI50: 12.9 µM | TGI: 71.5 µM

O=C(N/N=C/c1c[nH]c2ccccc12)Nc1ccccc1Cl
GI50: 1.06 µM | TGI: 21.3 µM

CC(C)Sc1nc(NCCc2c[nH]c3ccccc23)c(C#N)c(-c2ccccc2)n1
GI50: 15.3 µM | TGI: 33.7 µM
